The other results are listed elsewhere or left out. Cut-off read from the data, not from the text of the source: active = 3.2 or more and inactive = the rest. Only a few entries rise above the background.
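Note: displayed peptides selected on beads carrying the immobilized SH2 domain, with library peptides lacking any tyrosine serving as negative controls.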

In one test the target is SHP2 C-SH2 domain E139D. The experiment in a line: enrichment score (SH2-bound / input frequency) (ratio); bacterial display of known human phosphotyrosine sites (pTyr-Var adds point mutants) read by sequencing; higher = stronger binding; tyrosines were phosphorylated by kinases first. Conditions: peptide library: pTyr-Var.
Turning to SSPVPYLSPET [TJP1_Y931], the enrichment score is inactive: 0.806.

Regarding LYSDHYSPSGR [TMPRSS12_Y23], the enrichment score was inactive: 0.748.

Consider VSSPKYGSNDE [TMCC2_Y473_D476N], for which the enrichment score is inactive: 0.486.

ADNQRYAFMPL [TMEM87B_Y460_N456D]: the enrichment score was inactive: 0.72.

For TVEDHDYEGGI [TKT_Y563_Y563D], the enrichment score is inactive: 0.542.

For FSNVLYRPRGA [TMIGD2_Y197_YF], the enrichment score was inactive: 0.222.

KGYCGYSYDDI [TMEM230_Y110_R108C]: the enrichment score is inactive: 0.867.

LFSDHYSPSGR [TMPRSS12_Y23_YF]: the enrichment score is inactive: 1.

On to LITLVYGCSRQ [TMPRSS6_Y290_S288L], for which the enrichment score is inactive: 1.36.

Consider TVEDHDFEGGI [TKT_Y563_Y563D_YF], for which the enrichment score is inactive: 0.542.

For KGFRGYSFDDI [TMEM230_Y110_YF], the enrichment score is inactive: 0.733.

Consider VDLIVYLRTNP [TK2_Y181], for which the enrichment score was inactive: 0.724.

Regarding DGDTRYSTFSE [TKTL1_Y318], the enrichment score is inactive: 0.626.

In the case of KRLFAYKMLMA [TMC2_Y209_Q205R_YF], the enrichment score is active: 3.94.

In the case of FCGFSYDDIPD [TMEM230_Y112_R108C_YF], the enrichment score is inactive: 1.26.

With VEDHFYEGGIG [TKT_Y564_YF], the enrichment score is inactive: 0.913.

TVEDHYYEGGI [TKT_Y563]: the enrichment score is inactive: 0.707.

As to QNTGHYSSENT [TMEFF2_Y361_D364E], the enrichment score was inactive: 0.669.

As to YSNVLYRPRGP [TMIGD2_Y197_A202P], the enrichment score is inactive: 0.242.

In the next test the target is SHP2 C-SH2 domain wild-type. The description is as above. Conditions: peptide library: pTyr-Var.
As for SSPVPYLSPET [TJP1_Y931], the enrichment score was inactive: 0.736.

As to LYSDHYSPSGR [TMPRSS12_Y23], the enrichment score is inactive: 0.677.

Take VSSPKYGSNDE [TMCC2_Y473_D476N]: the enrichment score is inactive: 0.522.

As to ADNQRYAFMPL [TMEM87B_Y460_N456D], the enrichment score was inactive: 0.525.

Turning to TVEDHDYEGGI [TKT_Y563_Y563D], the enrichment score was inactive: 0.555.

As for FSNVLYRPRGA [TMIGD2_Y197_YF], the enrichment score is inactive: 0.295.

As to KGYCGYSYDDI [TMEM230_Y110_R108C], the enrichment score was inactive: 0.982.

For the molecule LFSDHYSPSGR [TMPRSS12_Y23_YF], the enrichment score is inactive: 0.818.

LITLVYGCSRQ [TMPRSS6_Y290_S288L]: the enrichment score was inactive: 1.08.

With TVEDHDFEGGI [TKT_Y563_Y563D_YF], the enrichment score is inactive: 0.674.

Regarding KGFRGYSFDDI [TMEM230_Y110_YF], the enrichment score is inactive: 0.582.

As for VDLIVYLRTNP [TK2_Y181], the enrichment score was inactive: 0.781.

DGDTRYSTFSE [TKTL1_Y318]: the enrichment score was inactive: 0.697.

Regarding KRLFAYKMLMA [TMC2_Y209_Q205R_YF], the enrichment score was active: 3.28.

In the case of FCGFSYDDIPD [TMEM230_Y112_R108C_YF], the enrichment score was inactive: 1.23.

Consider VEDHFYEGGIG [TKT_Y564_YF], for which the enrichment score is inactive: 0.869.

Take TVEDHYYEGGI [TKT_Y563]: the enrichment score was inactive: 0.903.

Consider QNTGHYSSENT [TMEFF2_Y361_D364E], for which the enrichment score is inactive: 0.617.

On to YSNVLYRPRGP [TMIGD2_Y197_A202P], for which the enrichment score was inactive: 0.171.

The target of the next test is SHP2 N-SH2 domain L43F. The description is as above. Conditions: peptide library: pTyr-Var.
SSPVPYLSPET [TJP1_Y931]: the enrichment score is inactive: 0.694.

For the molecule LYSDHYSPSGR [TMPRSS12_Y23], the enrichment score was inactive: 0.556.

Take VSSPKYGSNDE [TMCC2_Y473_D476N]: the enrichment score is inactive: 0.622.

On to ADNQRYAFMPL [TMEM87B_Y460_N456D], for which the enrichment score was inactive: 0.67.

For TVEDHDYEGGI [TKT_Y563_Y563D], the enrichment score was inactive: 0.497.

As to FSNVLYRPRGA [TMIGD2_Y197_YF], the enrichment score was inactive: 0.241.

Turning to KGYCGYSYDDI [TMEM230_Y110_R108C], the enrichment score was inactive: 0.972.

Turning to LFSDHYSPSGR [TMPRSS12_Y23_YF], the enrichment score is inactive: 0.809.

For the molecule LITLVYGCSRQ [TMPRSS6_Y290_S288L], the enrichment score was inactive: 1.08.

On to TVEDHDFEGGI [TKT_Y563_Y563D_YF], for which the enrichment score is inactive: 0.666.

KGFRGYSFDDI [TMEM230_Y110_YF]: the enrichment score is inactive: 0.583.

Regarding VDLIVYLRTNP [TK2_Y181], the enrichment score is inactive: 0.698.

On to DGDTRYSTFSE [TKTL1_Y318], for which the enrichment score is inactive: 0.642.

For KRLFAYKMLMA [TMC2_Y209_Q205R_YF], the enrichment score is active: 3.26.

For the molecule FCGFSYDDIPD [TMEM230_Y112_R108C_YF], the enrichment score is inactive: 1.2.

On to VEDHFYEGGIG [TKT_Y564_YF], for which the enrichment score is inactive: 0.988.

In the case of TVEDHYYEGGI [TKT_Y563], the enrichment score was inactive: 0.749.

Turning to QNTGHYSSENT [TMEFF2_Y361_D364E], the enrichment score was inactive: 0.382.

Take YSNVLYRPRGP [TMIGD2_Y197_A202P]: the enrichment score was inactive: 0.249.

In another test the target is SHP2 N-SH2 domain T42A. The description is as above. Conditions: peptide library: pTyr-Var.
In the case of SSPVPYLSPET [TJP1_Y931], the enrichment score is inactive: 0.644.

Consider LYSDHYSPSGR [TMPRSS12_Y23], for which the enrichment score is inactive: 0.631.

With VSSPKYGSNDE [TMCC2_Y473_D476N], the enrichment score is inactive: 0.489.

ADNQRYAFMPL [TMEM87B_Y460_N456D]: the enrichment score is inactive: 0.576.

Turning to TVEDHDYEGGI [TKT_Y563_Y563D], the enrichment score was inactive: 0.488.

For the molecule FSNVLYRPRGA [TMIGD2_Y197_YF], the enrichment score is inactive: 0.286.

Turning to KGYCGYSYDDI [TMEM230_Y110_R108C], the enrichment score is inactive: 0.957.

As to LFSDHYSPSGR [TMPRSS12_Y23_YF], the enrichment score was inactive: 0.833.

Take LITLVYGCSRQ [TMPRSS6_Y290_S288L]: the enrichment score was inactive: 0.719.

Consider TVEDHDFEGGI [TKT_Y563_Y563D_YF], for which the enrichment score is inactive: 0.443.

As for KGFRGYSFDDI [TMEM230_Y110_YF], the enrichment score was inactive: 0.594.

In the case of VDLIVYLRTNP [TK2_Y181], the enrichment score is inactive: 0.496.

For the molecule DGDTRYSTFSE [TKTL1_Y318], the enrichment score is inactive: 0.645.

KRLFAYKMLMA [TMC2_Y209_Q205R_YF]: the enrichment score was inactive: 3.08.

For FCGFSYDDIPD [TMEM230_Y112_R108C_YF], the enrichment score is inactive: 1.15.

Turning to VEDHFYEGGIG [TKT_Y564_YF], the enrichment score is inactive: 0.627.

Take TVEDHYYEGGI [TKT_Y563]: the enrichment score was inactive: 0.566.

For the molecule QNTGHYSSENT [TMEFF2_Y361_D364E], the enrichment score was inactive: 0.398.

Consider YSNVLYRPRGP [TMIGD2_Y197_A202P], for which the enrichment score is inactive: 0.186.

Another test concerns the target SHP2 N-SH2 domain T52S. The description is as above. Conditions: peptide library: pTyr-Var.
With SSPVPYLSPET [TJP1_Y931], the enrichment score was inactive: 0.769.

Consider LYSDHYSPSGR [TMPRSS12_Y23], for which the enrichment score was inactive: 0.761.

In the case of VSSPKYGSNDE [TMCC2_Y473_D476N], the enrichment score was inactive: 0.522.

Consider ADNQRYAFMPL [TMEM87B_Y460_N456D], for which the enrichment score was inactive: 0.653.

Regarding TVEDHDYEGGI [TKT_Y563_Y563D], the enrichment score is inactive: 0.514.

As for FSNVLYRPRGA [TMIGD2_Y197_YF], the enrichment score was inactive: 0.213.

Take KGYCGYSYDDI [TMEM230_Y110_R108C]: the enrichment score is inactive: 0.736.

On to LFSDHYSPSGR [TMPRSS12_Y23_YF], for which the enrichment score is inactive: 0.692.

For the molecule LITLVYGCSRQ [TMPRSS6_Y290_S288L], the enrichment score is inactive: 1.05.

As to TVEDHDFEGGI [TKT_Y563_Y563D_YF], the enrichment score is inactive: 0.611.

In the case of KGFRGYSFDDI [TMEM230_Y110_YF], the enrichment score is inactive: 0.618.

As to VDLIVYLRTNP [TK2_Y181], the enrichment score is inactive: 0.533.

Take DGDTRYSTFSE [TKTL1_Y318]: the enrichment score was inactive: 0.549.

Consider KRLFAYKMLMA [TMC2_Y209_Q205R_YF], for which the enrichment score was active: 3.27.

Consider FCGFSYDDIPD [TMEM230_Y112_R108C_YF], for which the enrichment score is inactive: 1.16.

Take VEDHFYEGGIG [TKT_Y564_YF]: the enrichment score is inactive: 0.765.

Take TVEDHYYEGGI [TKT_Y563]: the enrichment score was inactive: 0.696.

As for QNTGHYSSENT [TMEFF2_Y361_D364E], the enrichment score is inactive: 0.37.

As for YSNVLYRPRGP [TMIGD2_Y197_A202P], the enrichment score is inactive: 0.256.

The target in a further test is SHP2 N-SH2 domain wild-type. The test is described as above. Conditions: peptide library: pTyr-Var.
Regarding SSPVPYLSPET [TJP1_Y931], the enrichment score was inactive: 0.772.

In the case of LYSDHYSPSGR [TMPRSS12_Y23], the enrichment score is inactive: 0.55.

Consider VSSPKYGSNDE [TMCC2_Y473_D476N], for which the enrichment score was inactive: 0.485.

In the case of ADNQRYAFMPL [TMEM87B_Y460_N456D], the enrichment score was inactive: 0.698.

Regarding TVEDHDYEGGI [TKT_Y563_Y563D], the enrichment score was inactive: 0.528.

As for FSNVLYRPRGA [TMIGD2_Y197_YF], the enrichment score was inactive: 0.191.

For the molecule KGYCGYSYDDI [TMEM230_Y110_R108C], the enrichment score was inactive: 0.884.

In the case of LFSDHYSPSGR [TMPRSS12_Y23_YF], the enrichment score is inactive: 1.02.

As for LITLVYGCSRQ [TMPRSS6_Y290_S288L], the enrichment score was inactive: 1.13.

Consider TVEDHDFEGGI [TKT_Y563_Y563D_YF], for which the enrichment score was inactive: 0.629.

Regarding KGFRGYSFDDI [TMEM230_Y110_YF], the enrichment score is inactive: 0.808.

Consider VDLIVYLRTNP [TK2_Y181], for which the enrichment score is inactive: 0.838.

Take DGDTRYSTFSE [TKTL1_Y318]: the enrichment score is inactive: 0.534.

Consider KRLFAYKMLMA [TMC2_Y209_Q205R_YF], for which the enrichment score is active: 3.31.

Regarding FCGFSYDDIPD [TMEM230_Y112_R108C_YF], the enrichment score is inactive: 1.3.

Consider VEDHFYEGGIG [TKT_Y564_YF], for which the enrichment score is inactive: 0.688.

TVEDHYYEGGI [TKT_Y563]: the enrichment score was inactive: 0.557.

As for QNTGHYSSENT [TMEFF2_Y361_D364E], the enrichment score is inactive: 0.455.

In the case of YSNVLYRPRGP [TMIGD2_Y197_A202P], the enrichment score was inactive: 0.346.

Source of the values: the supplement of paper PMC10369915.
